# Results: PubChem BioAssay AID1768 (National Center for Advancing Translational Sciences (NCATS), 2009)
# Screen size: about 270,000 compounds; about 620 (0.23%) were called active. Inconclusive means that the source gave no clear call. Such entries were picked first, then a sample of the others. Calls come from the whole dose curve; as a rule, active = well fitted inhibition curve with a large enough effect in the polarisation, with a control signal flat (not every such curve was filed as active); inconclusive = small, poorly fitted or top-dose-only effect, or effect the other way, or a change in a side signal; inactive = no such curve, though single readings can be large or run the other way; the % refers to the polarisation. Potencies beside an inconclusive call are fits to weak or partial responses and may not hold up. A note “side channel” means that the fit belongs to a control or component signal, not to the main read-out.
# Molecular target: Menin (Homo sapiens) (UniProt O00255)
# Chain of UniProt O00255 (O00255 whole entry, looked up): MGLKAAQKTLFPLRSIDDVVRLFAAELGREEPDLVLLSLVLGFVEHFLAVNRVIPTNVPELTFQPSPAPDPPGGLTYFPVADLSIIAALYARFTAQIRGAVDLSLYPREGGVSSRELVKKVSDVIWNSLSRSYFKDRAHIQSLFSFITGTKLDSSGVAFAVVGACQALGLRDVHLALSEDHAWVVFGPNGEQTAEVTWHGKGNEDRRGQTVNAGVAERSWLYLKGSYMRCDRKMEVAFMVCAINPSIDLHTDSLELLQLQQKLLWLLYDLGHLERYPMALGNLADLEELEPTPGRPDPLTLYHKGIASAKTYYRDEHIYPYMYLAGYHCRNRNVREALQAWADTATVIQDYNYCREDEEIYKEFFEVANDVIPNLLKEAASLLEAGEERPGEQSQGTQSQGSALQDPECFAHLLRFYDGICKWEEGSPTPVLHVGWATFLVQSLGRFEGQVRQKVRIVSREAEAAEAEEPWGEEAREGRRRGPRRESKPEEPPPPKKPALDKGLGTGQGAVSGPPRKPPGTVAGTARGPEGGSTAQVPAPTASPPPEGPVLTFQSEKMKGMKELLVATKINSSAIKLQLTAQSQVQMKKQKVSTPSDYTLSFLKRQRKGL
# Experiment: qHTS Assay for Inhibitors Targeting the Menin-MLL Interaction in MLL Related Leukemias: Competition With Texas Red Labeled MLL-derived Mutant Peptide; for FP activity change, negative = inhibition: % of control where 0% means no effect
# Details: fluorescence polarization; FP activity change, negative = inhibition: at 61.6 µM (top of the series)
# Potency is the fitted concentration of half-maximal effect; tags give direction and shape of the fitted curve or compound fluorescence and quenching.
SMILES,Potency,"FP activity change, negative = inhibition"
COc1ccc(N=C2NC(=O)/C(=C\C=C\c3ccco3)S2)cc1,"inconclusive: 12.6 µM [quencher, side channel, partial curve]",
O=C(COc1cccc(C(F)(F)F)c1)Nc1ccc2[nH]ncc2c1,"inconclusive: 28.2 µM [quencher, side channel, single point]",
O=C(Oc1ccc(-c2cnc3ccccc3n2)cc1)c1ccc(Br)o1,"inconclusive: 5.01 µM [quencher, side channel, full curve, poor fit]",
O=[N+]([O-])c1ccc(N/N=C/c2ccc(O)c(O)c2O)c(S(=O)(=O)N2CCOCC2)c1,"inconclusive: 8.91 µM [quencher, side channel, partial curve]",
CC(C)c1ccc(Nc2ncccc2C(=O)O)cc1,"inconclusive: 12.6 µM [quencher, side channel, partial curve]",
Cc1noc(C)c1-c1ccc2ncnc(NCc3ccc4[nH]ccc4c3)c2c1,,inactive: 28.6%
CC(NC(=O)c1ccc([N+](=O)[O-])cc1[N+](=O)[O-])c1ccc(-c2ccccc2)cc1 (centres undefined),"inconclusive: 20 µM [quencher, side channel, partial curve]",
O=C(CSc1cccc[n+]1[O-])Nc1c(Br)cc([N+](=O)[O-])cc1Br,,inactive: 0.692%
COc1ccc(NC(=O)CC2Nc3cccc4cccc(c34)NC2=O)cc1 (centres undefined),"inconclusive: 12.6 µM [quencher, side channel, partial curve]",
CC1CC(C)CN(c2ncc3c(n2)CC(c2ccc(Cl)cc2)CC3=O)C1 (centres undefined),"inconclusive: 3.55 µM [fluorescent, side channel, full curve]",
Nc1nonc1-n1nnc(C(=O)N/N=C/c2ccc(OCc3cccc(Cl)c3)cc2)c1CN1CCCCC1,,inactive: 12.4%
CCOC(=O)N1CCN(S(=O)(=O)c2ccc(C(=O)Nc3nc4ccccc4s3)cc2)CC1,,inactive: -26.1%
CCOc1ccc(NC(=S)Nc2ccc(C)c([N+](=O)[O-])c2)cc1,"inconclusive: 35.5 µM [quencher, side channel, single point]",
O=C(C1CC(=O)N(c2ccccc2)C1)N1CCCCCC1 (centres undefined),,inactive: -3.36%
O=C(Nc1ccccc1C(F)(F)F)Nc1cccc2ccccc12,"inconclusive: 25.1 µM [inhibitor, partial curve]",
CC(C)C(c1nnnn1C1CCCCC1)N1CCN(C(=O)c2ccco2)CC1 (centres undefined),"inconclusive: 39.8 µM [inhibitor, single point]",
O=C(Nc1nc2c(s1)COc1ccccc1-2)c1cccs1,"inconclusive: 15.8 µM [quencher, side channel, partial curve]",
Cc1nc(NC(=O)c2ccccc2)sc1-c1csc(NCc2ccco2)n1,"inconclusive: 28.2 µM [quencher, side channel, partial curve]",
O=C(Nc1ccc(NC(=O)c2cccs2)cc1)c1cccs1,"inconclusive: 39.8 µM [fluorescent, side channel, single point]",
COc1ccccc1-n1cnc2cc(NCc3ccccn3)ccc21,"inconclusive: 39.8 µM [inhibitor, single point]",
CCn1c(C)c(C2=CCN(S(=O)(=O)c3ccc(C)cc3)CC2)c2ccccc21,"inconclusive: 25.1 µM [fluorescent, side channel, partial curve]",
CC1CCCN(c2ccc(C(=O)OCC(=O)N3c4ccccc4Sc4ccccc43)cc2[N+](=O)[O-])C1 (centres undefined),"inconclusive: 44.7 µM [inhibitor, partial curve, poor fit]",
Cc1ccccc1C(=O)c1cccn1CC(=O)NCc1ccccc1Cl,"inconclusive: 35.5 µM [fluorescent, side channel, single point]",
O=C(Nc1nc(-c2ccc(Cl)s2)cs1)c1cccs1,"inconclusive: 22.4 µM [quencher, side channel, partial curve]",
CCC1CCCCN1C(=O)c1sc2ncnc(N(CC)CC)c2c1C (centres undefined),"inconclusive: 14.1 µM [fluorescent, side channel, partial curve]",
COCCNC(=S)NNc1ccccc1[N+](=O)[O-],"inconclusive: 31.6 µM [quencher, side channel, single point]",
COc1cc(C(=O)N(Cc2cccnc2)Cc2cc3cc4c(cc3[nH]c2=O)OCCO4)cc(OC)c1OC,active: 17.8 µM,

SMILES,Potency,"FP activity change, negative = inhibition"
COc1ccc(NC(=O)C(c2ccc(OC)cc2)N(Cc2ccco2)C(=O)CC2NC(=O)NC2=O)cc1 (centres undefined),,inactive: 1.43%
CCOC(=O)C1(CCCc2ccccc2)CCN(C(=O)CCc2cnccn2)CC1,"inconclusive: 3.55 µM [fluorescent, side channel, full curve]",
COc1ccc(/C=N/c2oc(-c3ccccc3)cc2C#N)cc1OC,"inconclusive: 39.8 µM [quencher, side channel, single point]",
O=C(Nc1nc(-c2ccccc2)cs1)C1CCCN(S(=O)(=O)c2cccc([N+](=O)[O-])c2)C1 (centres undefined),"inconclusive: 12.6 µM [quencher, side channel, partial curve]",
CN1C(=O)/C(=C/c2cccc([N+](=O)[O-])c2)C(=O)N1c1ccccc1,"inconclusive: 22.4 µM [quencher, side channel, single point]",
CN(C)c1ccc(C(CNC(=O)c2cccs2)N(C)C)cc1 (centres undefined),"inconclusive: 14.1 µM [inhibitor, partial curve, poor fit]",
COc1ccc(N(CC(=O)NC2CCCC2)C(=O)c2ccc(C)s2)c(OC)c1,"inconclusive: 22.4 µM [fluorescent, side channel, partial curve]",
NS(=O)(=O)c1nn2cc(-c3ccccc3)nc2s1,,inactive: 52.7%
COc1ccc2c(c1)CCc1sc(NC(=O)c3ccco3)nc1-2,"inconclusive: 22.4 µM [quencher, partial curve]",
CC(=O)c1nnn(-c2nc(N)nc(N(c3ccccc3)c3ccccc3)n2)c1C,"inconclusive: 2.82 µM [inhibitor, partial curve]",
O=C1C2C(c3ccccc3)C=CC(c3ccccc3)C2C(=O)N1c1ccncc1 (centres undefined),"inconclusive: 1.78 µM [inhibitor, full curve]",
Cc1cc(NCc2cccnc2)nc(N)n1,"inconclusive: 6.31 µM [quencher, side channel, full curve, poor fit]",
Cn1c(C(=O)N2CCN(c3ccccc3)CC2)cc2cc(Cl)ccc21,"inconclusive: 39.8 µM [inhibitor, single point]",
Cc1[nH]c2ccc(OC(F)(F)F)cc2c1CCN1C(=O)c2ccc(C(=O)O)cc2C1=O,"inconclusive: 20 µM [quencher, partial curve]",
CCc1nc(Nc2ccc3c(c2)OCO3)c2oc3ccccc3c2n1,"inconclusive: 28.2 µM [quencher, side channel, partial curve]",
COC(=O)c1[nH]c2ccc(C)cc2c1NC(=O)Nc1ccccc1OC,"inconclusive: 28.2 µM [quencher, side channel, single point]",
O=C(CSc1ccc(Cl)cc1)Nc1cccc(NC(=O)c2ccco2)c1,"inconclusive: 35.5 µM [quencher, side channel, single point]",
O=C(CSc1ccc(-c2cccnc2)nn1)Nc1ccc(Br)cc1,"inconclusive: 28.2 µM [fluorescent, side channel, single point]",
COc1ccc(CN(C)C(C)C(=O)Nc2ccc(S(=O)(=O)N3CCOCC3)cc2)c(OC)c1 (centres undefined),"inconclusive: 10 µM [inhibitor, partial curve]",
COc1ccc(CCNC(=O)Nc2cccc([N+](=O)[O-])c2)cc1OC,"inconclusive: 28.2 µM [quencher, side channel, single point]",
CCCc1ccc(-c2cc(C(=O)N3CCN(c4ccccn4)CC3)c3ccccc3n2)cc1,"inconclusive: 0.708 µM [fluorescent, side channel, full curve, poor fit]",
CCc1nnc(NC(=O)CSc2nnc(C3CCCCC3)n2-c2cccc(Cl)c2)s1,"inconclusive: 25.1 µM [fluorescent, side channel, partial curve, poor fit]",
COc1cc(C(C)=O)ccc1OCC(O)CNCC(O)c1ccccc1 (centres undefined),"inconclusive: 14.1 µM [inhibitor, partial curve]",
COc1ccc(CC2(CO)CCN(Cc3cc4ccccc4o3)CC2)cc1,"inconclusive: 5.01 µM [fluorescent, side channel, full curve, poor fit]",
COc1ccc(Nc2nc(N)nc(CSC(=S)N3CCCCC3)n2)cc1,"inconclusive: 14.1 µM [quencher, side channel, partial curve]",
Cc1cc(NC(=O)CSc2nnc(CNC(=O)c3c(F)cccc3F)o2)no1,,inactive: 10.1%
CSCC[C@H](NC(=O)[C@H](CO)NC(=O)[C@H](Cc1ccc(O)cc1)NC(=O)[C@@H](N)CO)C(=O)N[C@@H](CCC(=O)O)C(=O)N[C@@H](Cc1cnc[nH]1)C(=O)N[C@@H](Cc1ccccc1)C(=O)N[C@@H](CCCNC(=N)N)C(=O)N[C@@H](Cc1c[nH]c2ccccc12)C(=O)NCC(=O)N[C@@H](CCCCN)C(=O)N1CCC[C@H]1C(=O)N[C@H](C(=O)NCC(=O)N[C@@H](CCCCN)C(=O)N[C@@H](CCCCN)C(=O)N[C@@H](CCCNC(=N)N)C(=O)N[C@@H](CCCNC(=N)N)C(=O)N1CCC[C@H]1C(=O)N[C@H](C(=O)N[C@@H](CCCCN)C(=O)N[C@H](C(=O)N[C@@H](Cc1ccc(O)cc1)C(=O)N1CCC[C@H]1C(=O)N[C@@H](CC(N)=O)C(=O)NCC(=O)N[C@@H](C)C(=O)N[C@@H](CCC(=O)O)C(=O)N[C@@H](CC(=O)O)C(=O)N[C@@H](CCC(=O)O)C(=O)N[C@@H](CO)C(=O)N[C@@H](C)C(=O)N[C@@H](CCC(=O)O)C(=O)N[C@@H](C)C(=O)N[C@@H](Cc1ccccc1)C(=O)N1CCC[C@H]1C(=O)N[C@@H](CC(C)C)C(=O)N[C@@H](CCC(=O)O)C(=O)N[C@@H](Cc1ccccc1)C(=O)O)C(C)C)C(C)C)C(C)C,,inactive: -29.9%
